About 2,200 (0.71%) of roughly 310,000 compounds showed an effect of 50% or more. The effect is printed as a negative number. The list shows a part of the results.
target: human ether-à-go-go-related gene (hERG) potassium channel (human, UniProt Q12809); test: primary screen, population patch clamp on CHO cells stably expressing hERG
Sequence (Q12809 whole entry, looked up): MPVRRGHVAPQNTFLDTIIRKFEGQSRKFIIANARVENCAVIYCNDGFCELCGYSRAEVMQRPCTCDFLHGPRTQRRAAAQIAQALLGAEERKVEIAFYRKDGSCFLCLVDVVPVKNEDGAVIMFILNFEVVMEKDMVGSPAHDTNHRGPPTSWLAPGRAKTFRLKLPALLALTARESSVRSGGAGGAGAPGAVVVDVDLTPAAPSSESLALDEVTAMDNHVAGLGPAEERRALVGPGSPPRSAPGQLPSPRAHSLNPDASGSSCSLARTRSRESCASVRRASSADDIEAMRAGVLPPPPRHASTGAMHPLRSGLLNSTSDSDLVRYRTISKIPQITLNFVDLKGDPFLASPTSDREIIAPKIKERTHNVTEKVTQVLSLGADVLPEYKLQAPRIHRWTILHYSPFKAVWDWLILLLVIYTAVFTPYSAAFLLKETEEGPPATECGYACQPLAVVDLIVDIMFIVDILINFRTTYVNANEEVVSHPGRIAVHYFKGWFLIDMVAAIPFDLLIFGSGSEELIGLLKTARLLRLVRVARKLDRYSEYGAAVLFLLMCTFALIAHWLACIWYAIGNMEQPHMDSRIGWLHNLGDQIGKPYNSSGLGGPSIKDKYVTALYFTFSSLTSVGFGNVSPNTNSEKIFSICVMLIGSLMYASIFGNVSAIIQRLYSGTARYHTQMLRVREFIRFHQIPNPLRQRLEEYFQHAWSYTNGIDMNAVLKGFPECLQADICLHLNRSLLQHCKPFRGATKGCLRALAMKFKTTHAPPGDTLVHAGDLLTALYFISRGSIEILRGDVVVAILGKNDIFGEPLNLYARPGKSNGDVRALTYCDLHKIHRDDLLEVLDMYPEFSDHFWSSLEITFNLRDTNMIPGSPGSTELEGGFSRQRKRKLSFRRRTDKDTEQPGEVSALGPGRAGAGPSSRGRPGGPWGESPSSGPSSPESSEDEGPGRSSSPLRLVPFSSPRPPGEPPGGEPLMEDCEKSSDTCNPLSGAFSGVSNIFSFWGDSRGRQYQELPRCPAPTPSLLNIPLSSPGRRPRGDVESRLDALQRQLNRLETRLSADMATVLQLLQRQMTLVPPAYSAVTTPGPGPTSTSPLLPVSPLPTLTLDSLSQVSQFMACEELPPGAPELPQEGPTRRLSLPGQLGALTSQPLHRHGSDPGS

| Compound | hERG current change (%, negative = inhibition) at 1uM [%] |
| --- | --- |
| CCCOC(=O)c1ccc(-c2ccc(C=O)o2)cc1 | 10.8 |
| CN(C)C1(CNC(=O)Cc2ccccc2F)CCCCC1 | 9.54 |
| Cc1c(CN2CCCC(C(=O)c3cccc(OC(C)C)c3)C2)c(=O)n(-c2ccccc2)n1C (stereo not drawn) | -28.6 |
| CC(C)n1c(NCc2ccc(N(C)C)cc2)nc2ccccc21 | -6.31 |
| O=C(COc1ccc(Br)cc1)NC1CC1 | 9.71 |
| Cc1nc2sc(C(c3cccs3)N3CC(C)CC(C)C3)c(O)n2n1 (stereo not drawn) | -2.36 |
| Cn1ccnc1Sc1nnnn1-c1ccccc1 | 0.239 |
| CCOC(=O)c1c(C)n(C)c2cc(-c3ccc(F)cc3)c(O)cc12 | 15.6 |
| COCc1nnc(NC(=O)c2ccc(S(=O)(=O)N3CCCc4ccccc43)cc2)o1 | 12.1 |
| COc1ccc(/C=N/NC(=O)c2ccc(-c3ccccc3)cc2)cc1O | 11.3 |
| O=S(=O)(c1ccccc1C(F)(F)F)N1CCOCC1 | 5.02 |
| O=C(O)CNC(=O)CCCn1nnc2ccccc2c1=O | 4.98 |
| O=C(NC1CCCC1)C1CCN(C(=O)c2ccc(Cl)cc2Cl)CC1 | 11 |
| O=S1(=O)NC(=NCc2ccco2)c2ccccc21 | 3.95 |
| CCC(C)NC(=O)C1(C)CCC(=O)N1Cc1ccccc1OC (stereo not drawn) | -0.857 |
| Cc1ccc(C(C)C)c(OCC(=O)NNC2=CC(=O)CC(C)(C)C2)c1 | 5.27 |
| COC(=O)c1ccccc1NC(=O)COC(=O)CSCC(=O)N1CCOCC1 | -0.705 |
| COc1ccc(OC)c(C(=O)/C=C/c2ccccc2C(F)(F)F)c1 | 15 |
| CCCOc1ccc(C2C(C#N)=C(N)Oc3nc[nH]c(=O)c32)cc1OC (stereo not drawn) | 8.94 |
| CC(C)N(Cc1ccccc1)C(=O)COC(=O)c1ccccc1SCC(=O)N1CCCC1 | -0.506 |
| CCCCNC(=O)N(O)C1N(/N=C/c2ccc(N(C)C)cc2)C(=S)SC1(C)C (stereo not drawn) | 10.4 |
| COc1ccc(C(=O)Nc2ccc(S(=O)(=O)N3CCCC3)cc2)cc1[N+](=O)[O-] | 18.6 |

| Compound | hERG current change (%, negative = inhibition) at 1uM [%] |
| --- | --- |
| O=C(CN1C(=O)C2CCCCC2C1=O)N1CCN(c2ccc(F)cc2)CC1 (stereo not drawn) | 3.66 |
| COc1c(Cl)cc(Cl)cc1CNCCNCCO.Cl | 8.71 |
| Nc1ccc(C(=O)OCC(=O)c2cccc([N+](=O)[O-])c2)cc1 | 9.37 |
| O=S(=O)(c1ccc(Cl)nc1)N1CCN(c2ncccn2)CC1 | 8.91 |
| CC[n+]1c(/C=C/Nc2ccccc2)sc2ccccc21.[I-] | -62.8 |
| Cc1cccc(N2CCN(c3ccc(N4C(=O)CCCC4=O)cc3[N+](=O)[O-])CC2)c1C | 10.5 |
| COc1ccccc1/C=C/C=N/n1c(-c2cc(-c3ccccc3)n[nH]2)n[nH]c1=S | 9.98 |
| COc1ccc(NC(=O)CCN2CCN(Cc3ccccc3)CC2)c(OC)c1 | 7.82 |
| CCOc1ccc(C(=O)NC(C)CCc2ccccc2)cc1 (stereo not drawn) | 15 |
| O=C(NC(=S)N1CCN(c2ccc([N+](=O)[O-])cc2)CC1)c1ccco1 | -6.92 |
| CSc1ccc(S(=O)(=O)NCc2ccccc2)cc1 | 10.4 |
| COc1ccc2cc(CCNC(=O)c3cccs3)c(=O)[nH]c2c1 | 10.4 |
| CCOc1ccc(S(=O)(=O)NCc2cccnc2)c2ccccc12 | 7.28 |
| Cc1cc(C)cc(N(CC(=O)N2CCCC2)S(C)(=O)=O)c1 | 7.46 |
| O=S(=O)(c1ccc(Cl)cc1)c1nc(-c2ccccc2F)oc1NCCCN1CCOCC1 | 3.44 |
| C/C(=C\c1ccccc1)CN1CCN(Cc2ccc(C)o2)C(CCO)C1 (stereo not drawn) | -2.15 |
| Cc1sc(NC(=O)CSc2nnc(C(C)C)n2C)c(C#N)c1C | 7.06 |
| COc1cc(O)c(C(CCN2CCN(c3ccccc3)CC2)c2ccc(N(C)C)cc2)c(OC)c1 (stereo not drawn) | 19.4 |
| O=C(NC(NC(=O)c1ccccc1)c1cccc([N+](=O)[O-])c1)c1ccccc1 | 4.97 |
| COc1ccc(C2=CC(=O)C[C@H](c3ccc(F)cc3)C2)cc1OC | 9.85 |
| CC(=O)Nc1sc(NC(=O)c2ccc(Cl)cc2)nc1-c1cccs1 | 0.882 |
| COc1ccc(Cl)cc1C(=O)NNC(=S)NC(=O)c1cc(-c2ccccc2)nc2ccccc12 | 10 |

| Compound | hERG current change (%, negative = inhibition) at 1uM [%] |
| --- | --- |
| O=C(NCC(=O)N(c1ccccc1)C(C(=O)NC1CCCC1)c1cccnc1)c1ccco1 (stereo not drawn) | 10.7 |
| CNC(=O)CSc1nc2ccccc2c(=O)n1-c1cc(OC)ccc1OC | 3.87 |
| Cc1ccc(-n2c(SCC3CCCCO3)nnc2-c2ccco2)cc1 (stereo not drawn) | -2.89 |
| O=C(c1ccco1)N1CCN(S(=O)(=O)c2ccc3c(c2)OCCO3)CC1 | 4.86 |
| COc1ccc(-c2nc3ccccc3n2OC(C)C(=O)O)cc1 (stereo not drawn) | 10.6 |
| C=Cn1cc[n+](CC(=O)c2ccc(OC)cc2)c1.[Br-] | -0.497 |
| CCN(Cc1ccncc1)C(=O)c1ccccc1NS(=O)(=O)c1ccc(F)cc1 | 11.5 |
| CN(C)C(=O)c1cc(C(=O)c2ccccc2)c[nH]1 | 5.32 |
| CCOc1ccc(C(=O)NCC(=O)N2CCC3CCCCC3C2)cc1OCC (stereo not drawn) | 6.92 |
| CC(=O)Nc1ccc(S(=O)(=O)N2CCNC(=O)CC2)cc1 | 7.55 |
| COc1cccc(-n2c(SCC(=O)Nc3cc(C)on3)nc3c([nH]c4ccccc43)c2=O)c1 | 12.1 |
| CCN(C(=O)COC(=O)/C=C/c1cnc2ccccc2n1)c1ccccc1 | 0.829 |
| Cc1ccc(S(=O)(=O)NCC(C)NS(C)(=O)=O)cc1 (stereo not drawn) | 16.8 |
| Cc1ccc(C2(c3ccc(C)cc3)CC2C(=O)Nc2ccc([N+](=O)[O-])cc2O)cc1 (stereo not drawn) | 8.54 |
| CN(C)c1nc(-c2cccnc2)nc(-c2ccc(Cl)cc2)c1C#N | 24.7 |
| O=C1NC(=O)N(CCc2ccc(F)cc2)C(=O)/C1=C/c1ccco1 | 1.52 |
| CC12CCC3c4ccc(O)cc4CCC3C1CC(O)C2O (stereo not drawn) | 10.7 |
| Cl.c1ccc([C@H]2CN3CCSC3=N2)cc1 | 9.75 |
| Cc1cc(=O)oc2cc(OCC(=O)Nc3ccc(N4CCC(C)CC4)cc3)ccc12 | 19.1 |
| O=C(c1ccc(Cl)c(Cl)c1)c1cc(-c2ccccn2)c(N2CCOCC2)s1 | -1.05 |
| O=C1N/C(=N/c2ccccn2)SC1Cc1ccccc1 (stereo not drawn) | 2.36 |
| CN1CCN(C(c2cc3cc4c(cc3[nH]c2=O)OCCO4)c2nnnn2C2CCCC2)CC1 (stereo not drawn) | 0.355 |

| Compound | hERG current change (%, negative = inhibition) at 1uM [%] |
| --- | --- |
| COCC1CCCCN1C(=O)c1cccc(OC2CCN(S(C)(=O)=O)CC2)c1 (stereo not drawn) | 15 |
| Cc1ccc(S(=O)(=O)NCCN2CCOCC2)cc1C | 3.39 |
| Cc1ccc2sc(N(CCCN(C)C)C(=O)c3ccc(S(=O)(=O)N(C)C4CCCCC4)cc3)nc2c1C.Cl | 2.47 |
| CCCn1c(C(Cc2ccccc2)NC(=O)COC)nc2ccccc21 (stereo not drawn) | 9.92 |
| CCOc1ccc(/C=C2/Sc3ccc(C(=O)N4CCN(C(=O)c5ccco5)CC4)cc3N(C)C2=O)cc1OC | -21.7 |
| Cc1ccc(C(c2nnnn2CS(=O)(=O)c2ccc(C)cc2)N2CCCC2)cc1 (stereo not drawn) | 9.65 |
| CC(=O)c1ccc(-c2ccc(C(=O)N(C)Cc3nc4ccccc4c(=O)[nH]3)o2)cc1 | 3.87 |
| CCN(CC)C(=O)c1c(Cl)nc(C)c([N+](=O)[O-])c1C | 22.8 |
| NC(=O)c1oc2ccccc2c1NC(=O)c1nc2ccccc2s1 | 14.2 |
| Cc1ccc(Nc2c(-c3ccccn3)nc3ccc(C)cn23)cc1 | 3.51 |
| NC(=O)C1=NOC(CNc2ncc(C(F)(F)F)cc2Cl)C1 (stereo not drawn) | 5.58 |
| COC(=O)C[C@](O)(CCCC(C)(C)O)C(=O)O[C@@H]1C(OC)=C[C@]23CCCN2CCc2cc4c(cc2[C@H]13)OCO4 | 9.6 |
| O=C(NCc1ccccc1)Nc1cccn(Cc2ccccc2)c1=O | -3.9 |
| CCOC(=O)[C@H]1[C@H]2COc3ccc(Br)cc3[C@@H]2N2C(=O)c3ccc(Cl)cc3NC(=O)[C@@]12C | 7.45 |
| O=c1cc(-c2ccccc2)nc2cc(-c3ccco3)[nH]n12 | 9.77 |
| COc1cccc(N2CCN(Cc3nc4scc(-c5ccccc5)c4c(=O)[nH]3)CC2)c1 | 10.1 |
| O=C(Nc1ccc2ccccc2n1)C1CCCCC1 | 4.51 |
| CCC(OC(=O)c1ccco1)C(=O)NCc1ccc2c(c1)OCO2 (stereo not drawn) | 9.47 |
| COC(=O)C1CCCCN1C(=O)c1cc(COc2cccc3cnccc23)on1 (stereo not drawn) | 7.94 |
| COc1cc(CN2CCCC(C)C2)cc([N+](=O)[O-])c1O (stereo not drawn) | 9.99 |
| COc1ccccc1CNC(=O)[C@@H](NC(=O)C1CCN(C(=O)[C@@H]2CCCN2)CC1)C(C)C | -2.41 |
